The results in this text go back to the supplement of paper PMC2702839.

Where a name gives a salt, the structure may show the parent alone. Some of the results follow.

This assay relates to Schistosoma mansoni schistosomula. Briefly: phenotypic hit in primary schistosomula screen (any phenotype vs DMSO control) (binary (1 = hit, 0 = no phenotype)); higher = active (phenotype induced). As to conditions: 1 µM; time (d): 7.
As to `CCC(=O)OC1[C@@H]2CC3=C4CC(=O)O[C@@H](c5ccoc5)[C@]4(C)CCC3[C@@](C)(C2=O)[C@@H](CC(=O)OC)C1(C)C` (some centres not stated) [khayasin c], the phenotypic hit was inactive: 0.

Turning to `O=C(Nc1ccccc1)c1ccccc1O` [salicylanilide], the phenotypic hit was inactive: 0.

In the case of `COC(=O)C[C@H]1C(C)(C)C(=O)[C@@H]2CC3=C(CC[C@]4(C)C3=CC(=O)O[C@H]4c3ccoc3)[C@@]1(C)C2=O` [carapin-8 (9)-ene], the phenotypic hit was inactive: 0.

For `CN[C@H](CC(C)C)C(=O)N[C@H]1C(=O)N[C@@H](CC(N)=O)C(=O)N[C@H]2C(=O)N[C@H]3C(=O)N[C@H](C(=O)N[C@H](C(=O)O)c4cc(O)cc(O)c4-c4cc3ccc4O)[C@H](O)c3ccc(c(Cl)c3)Oc3cc2cc(c3O[C@@H]2O[C@H](CO)[C@@H](O)[C@H](O)[C@H]2O[C@H]2C[C@](C)(N)[C@H](O)[C@H](C)O2)Oc2ccc(cc2Cl)[C@H]1O` [vancomycin hydrochloride], the phenotypic hit was inactive: 0.

`C[C@H](N)C(=O)NC(Cc1ccccc1)C(=O)O` (mixture of isomers) [alanyl-dl-phenylalanine]: the phenotypic hit is inactive: 0.

In the case of `O=c1c(O)c(-c2ccc(O)c(O)c2)oc2cc(O)ccc12` [fisetin], the phenotypic hit was inactive: 0.

For `NS(=O)(=O)c1cc2c(cc1Cl)N=CNS2(=O)=O` [Chlorothiazide], the phenotypic hit was inactive: 0.

Regarding `CCOC(=O)[C@H](CCc1ccccc1)N[C@@H](C)C(=O)N1[C@H](C(=O)O)C[C@@H]2CCC[C@@H]21` [ramipril], the phenotypic hit was inactive: 0.

Turning to `CCOc1ccc2c(c1)C(C)=CC(C)(C)N2` [ethoxyquin], the phenotypic hit is inactive: 0.

Take `C#CCCCCCCCCCCCC(O)CC(O)CO.C=CCCCCCCCCCCCC(O)CC(O)CO` (configuration not stated) [avocatin b]: the phenotypic hit is active: 1.

For the compound `CCC(CCC(C)C1CCC2C3CCC4CC(O)CCC4(C)C3CCC12C)C(C)C` (configuration not stated) [fucostanol], the phenotypic hit was inactive: 0.

Turning to `CC(C)COCC(CN(Cc1ccccc1)c1ccccc1)N1CCCC1` (configuration not stated) [Bepridil hydrochloride], the phenotypic hit is inactive: 0.

For the compound `C=NC(C(=O)NC1C(=O)N2C1SC(C)(C)C2C(=O)O)c1ccccc1` (configuration not stated) [metampicillin sodium], the phenotypic hit is inactive: 0.

As for `Cn1c(=O)c2[nH]c(C3CCCC3)nc2n(C)c1=O` [8-Cyclopentyl-1,3-dimethylxanthine], the phenotypic hit is inactive: 0.

Consider `CC1=CC2C(C(C)C)CCC(C)(O)C2CC1` (configuration not stated) [cadin-4-en-10-ol], for which the phenotypic hit is inactive: 0.

As to `NS(=O)(=O)c1cc(C(=O)O)c(NCc2ccco2)cc1Cl` [furosemide], the phenotypic hit was inactive: 0.

In the case of `COc1ccc2ccc(=O)oc2c1` [herniarin], the phenotypic hit is inactive: 0.

Turning to `CC(=O)CC(=O)CCC(=O)O` [succinylacetone], the phenotypic hit is inactive: 0.

For the compound `CC(=O)Oc1cc(C)c2c(c1C(OC(C)=O)OC(C)=O)Oc1c(c(C)c(OC(C)=O)c3c1C(OC(C)=O)OC3=O)OC2=O` (configuration not stated) [norstictic acid pentaacetate], the phenotypic hit is inactive: 0.

For the compound `Cc1cc(C2CCCCC2)n(O)c(=O)c1` [ciclopirox olamine], the phenotypic hit was inactive: 0.

For the compound `O=C(O)c1cc2cc(Cl)ccc2[nH]1` [5-chloroindole-2-carboxylic acid], the phenotypic hit is inactive: 0.

Consider `COc1cccc(OC)c1OCCNCC1COc2ccccc2O1` (configuration not stated) [WB-4101 hydrochloride], for which the phenotypic hit was inactive: 0.

On to `CC(C)(O)[C@H]1CC[C@]2(C)[C@H]3CC[C@@H]4[C@@]5(C)CCCC(C)(C)[C@@H]5[C@@H](O)C[C@@]4(C)[C@]3(C)CC[C@@H]12` [zeorin], for which the phenotypic hit is inactive: 0.

`CCC1(O)CC(OC2CC(N(C)C)C(OC3CC(O)C(OC4CCC(=O)C(C)O4)C(C)O3)C(C)O2)c2c(cc3c(c2O)C(=O)c2c(O)cccc2C3=O)C1C(=O)OC` (configuration not stated) [aclacinomycin a1]: the phenotypic hit was inactive: 0.

As to `NC1(C(=O)O)CCC1` [1-aminocyclobutane carboxylic acid], the phenotypic hit was inactive: 0.

On to `CC(=O)O[C@H]1CC[C@]2(C)C(C[C@@H](OC(C)=O)[C@]3(C)C4=CC(=O)O[C@H](c5ccoc5)[C@@]4(C)CCC23)C1(C)C` (stereo partly drawn) [3-deoxo-3beta-acetoxydeoxydihydrogedunin], for which the phenotypic hit is inactive: 0.

For the compound `N=C(N)NC(=O)c1nc(Cl)c(N)nc1N` [Amiloride hydrochloride], the phenotypic hit was inactive: 0.

Take `O=C(N[C@@H](Cc1c[nH]c2ccccc12)C(=O)O)c1ccc(Cl)cc1` [Benzotript]: the phenotypic hit is active: 1.

Turning to `CCCCOC(=O)c1ccc(N)cc1` [butamben], the phenotypic hit was inactive: 0.

Consider `CC[C@H]1OC(=O)[C@H](C)[C@@H](O[C@H]2C[C@@](C)(OC)[C@@H](O)[C@H](C)O2)[C@H](C)[C@@H](O[C@@H]2O[C@H](C)C[C@H](N(C)C)[C@H]2O)[C@](C)(OC)C[C@@H](C)C(=O)[C@H](C)[C@@H](O)[C@]1(C)O` [clarithromycin], for which the phenotypic hit is inactive: 0.

For the compound `CCCCC1=NC2(CCCC2)C(=O)N1Cc1ccc(-c2ccccc2-c2nnn[nH]2)cc1` [irbesartan], the phenotypic hit is inactive: 0.

As to `COc1cc2c(cc1OC)Cc1cc(OC)c(OC)cc1Cc1cc(OC)c(OC)cc1C2` [cycloveratrylene], the phenotypic hit is inactive: 0.

For `C[C@@H]1O[C@@H](O[C@H]2[C@H](Oc3cc(O)c4c(c3)O[C@H](c3ccc(O)cc3)CC4=O)O[C@H](CO)[C@@H](O)[C@@H]2O)[C@H](O)[C@H](O)[C@H]1O` [naringin], the phenotypic hit is inactive: 0.

Regarding `CC(=O)OCC(=O)[C@@]12OC3(CCCC3)O[C@@H]1C[C@H]1[C@@H]3CCC4=CC(=O)C=C[C@]4(C)[C@@]3(F)[C@@H](O)C[C@@]12C` [amcinonide], the phenotypic hit was inactive: 0.

As for `C#CC1(O)CC[C@H]2[C@@H]3CCC4=CC(=O)CC[C@@H]4[C@H]3CC[C@@]21CC` (mixture of isomers) [norgestrel], the phenotypic hit was inactive: 0.

For the compound `CCCC(=O)Nc1ccc(OCC(O)CNC(C)C)c(C(C)=O)c1` (configuration not stated) [acebutolol hydrochloride], the phenotypic hit is inactive: 0.

Turning to `C[C@@H]1O[C@@H](OC[C@H]2O[C@@H](Oc3c(-c4ccc(O)c(O)c4)oc4cc(O)cc(O)c4c3=O)[C@H](O)[C@@H](O)[C@@H]2O)[C@H](O)[C@H](O)[C@H]1O` [rutoside  (rutin)], the phenotypic hit is inactive: 0.

Regarding `CN1[C@@H]2CC[C@H]1C[C@@H](OC(c1ccccc1)c1ccccc1)C2` [Benztropine mesylate], the phenotypic hit was active: 1.

On to `CC(=O)Nc1ccc(OCC(O)CNC(C)C)cc1` (configuration not stated) [practolol], for which the phenotypic hit was inactive: 0.

On to `C[C@H](CCC(=O)O)[C@H]1CC[C@H]2[C@@H]3C[C@H](O)[C@@H]4C[C@H](O)CC[C@]4(C)[C@H]3CC[C@]12C` [alpha-hyodeoxycholic acid], for which the phenotypic hit was inactive: 0.

Regarding `COc1c(O)cc(O)cc1O` [iretol], the phenotypic hit was inactive: 0.

In the case of `CCCCC[C@@H](O)[C@H]1C(=O)O[C@H](C)[C@@H](O)/C=C/C=C/C=C/C=C/C=C(\C)[C@@H](O)C[C@H](O)C[C@H](O)C[C@H](O)C[C@H](O)C[C@H](O)C[C@@H]1O` [filipin], the phenotypic hit was inactive: 0.

As to `O=C(O)/C=C/C=C/c1ccccc1` [juarezic acid], the phenotypic hit is inactive: 0.

For the compound `CCCCC1C(=O)N(c2ccccc2)N(c2ccccc2)C1=O` [Phenylbutazone], the phenotypic hit was inactive: 0.

As for `COc1ccccc1-c1cc(=O)c2cccc(OC)c2o1` [8,2'-dimethoxyflavone], the phenotypic hit is inactive: 0.

In the case of `C#C[C@]1(OC(C)=O)CC[C@H]2[C@@H]3CCC4=CC(=O)CC[C@@H]4[C@H]3CC[C@@]21C` [norethindrone acetate], the phenotypic hit was inactive: 0.

As to `CC1=CC(=O)c2ccccc2C1=O` [menadione], the phenotypic hit is inactive: 0.

As for `CC(=O)/N=c1/sc(S(N)(=O)=O)nn1C` [methazolamide], the phenotypic hit was active: 1.

As to `CC(Cc1ccc(O)c(O)c1)C(C)Cc1ccc(O)c(O)c1` (configuration not stated) [nordihydroguaretic acid], the phenotypic hit was inactive: 0.

Regarding `CC(C)=CCC/C(C)=C\CO` [nerol], the phenotypic hit is inactive: 0.

As for `COc1cc(C(C)=O)cc(OC)c1O` [acetosyringone], the phenotypic hit was inactive: 0.

Regarding `Cc1ccc(C(=O)C(C)CN2CCCCC2)cc1` (configuration not stated) [tolperisone hydrochloride], the phenotypic hit was inactive: 0.

As to `CCC(=O)c1ccc2c(c1)N(CC(C)N(C)C)c1ccccc1S2` (configuration not stated) [propiomazine maleate], the phenotypic hit was inactive: 0.

On to `O=C(CCCCC(=O)Nc1c(I)cc(I)c(C(=O)O)c1I)Nc1c(I)cc(I)c(C(=O)O)c1I` [iodipamide], for which the phenotypic hit was inactive: 0.

On to `CC(C)(C)NCC(O)COc1cccc2c1CC(O)C(O)C2` (configuration not stated) [nadolol], for which the phenotypic hit was inactive: 0.

`Cc1cc(O)cc(O)c1C(=O)O` [orsellinic acid]: the phenotypic hit was inactive: 0.

For `CCC(C)C(=O)OC1[C@@H]2CC3=C4CC(=O)O[C@@H](c5ccoc5)[C@]4(C)CCC3[C@@](C)(C2=O)[C@@H](CC(=O)OC)C1(C)C` (some centres not stated) [khayasin], the phenotypic hit is inactive: 0.

As to `CC1=C(C(=O)O)N2C(=O)[C@@H](NC(=O)[C@H](N)c3ccccc3)[C@H]2SC1` [cephalexin], the phenotypic hit was inactive: 0.

With `O=C1C(O)=C(O)C(=O)C(O)=C1O` [tetroquinone], the phenotypic hit was inactive: 0.

With `COc1ccc2c(c1)c(CC(=O)OCC(=O)O)c(C)n2C(=O)c1ccc(Cl)cc1` [acemetacin], the phenotypic hit is inactive: 0.

Take `Cc1c2oc3c(C)ccc(C(=O)N[C@@H]4C(=O)N[C@H](C(C)C)C(=O)N5CCC[C@H]5C(=O)N(C)CC(=O)N(C)[C@@H](C(C)C)C(=O)O[C@@H]4C)c3nc-2c(C(=O)N[C@@H]2C(=O)N[C@H](C(C)C)C(=O)N3CCC[C@H]3C(=O)N(C)CC(=O)N(C)[C@@H](C(C)C)C(=O)O[C@@H]2C)c(N)c1=O` [dactinomycin]: the phenotypic hit was active: 1.

For `COc1ccc2c(c1)OC[C@@H](Cc1ccc(OC)c(OC)c1)[C@@H]2O` [3-deshydroxysappanol trimethyl ether], the phenotypic hit is inactive: 0.
